Assays:
Mucor miehei lipase [1] = target: T1, Mucor miehei lipase (Rhizomucor miehei, UniProt P19515); test: Lipase inhibition (4-NPP hydrolysis, 405 nm); settings: 0.75 mM 4-NPP, 0.4 µg/mL lipase, Tris-HCl buffer pH 7.8, 37 °C, crude lipopeptide and purified fengycin dissolved in water, iturin and surfactin standards in methanol
T1 sequence (P19515 95-363): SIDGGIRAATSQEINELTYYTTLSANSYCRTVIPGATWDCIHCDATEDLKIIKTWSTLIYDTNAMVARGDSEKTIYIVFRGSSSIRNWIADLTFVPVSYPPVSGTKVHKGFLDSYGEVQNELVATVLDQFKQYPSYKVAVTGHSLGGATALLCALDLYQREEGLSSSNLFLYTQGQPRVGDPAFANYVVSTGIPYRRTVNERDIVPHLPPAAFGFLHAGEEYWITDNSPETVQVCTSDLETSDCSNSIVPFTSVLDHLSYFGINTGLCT
Method: Lyophilised powder of Mucor miehei lipase (EC3.1.1.3), 4-Nitrophenyl palmitate (4-NPP), iturin, and surfactin were purchased from Sigma-Aldrich (St. Louis, MO). Acetonitrile, hydrochloric acid (HCl) and Tris were purchased from Sinopharm (Shanghai, China).
The lipase inhibition was determined according to the method described by Liu et al.[21] 10 µg/mL lipase in water and 7.5 mmol/L 4-NPP in acetonitrile solutions were prepared. The crude lipopeptide and purified fengycin were dissolved in water, while the iturin and surfactin standards were dissolved in methanol, and then all were diluted to their appropriate concentrations. The 1 mL reaction mixture contained 0.75 mM 4-NPP, 0.4 µg/mL lipase, and different concentrations of inhibitor in Tris-HCl buffer (pH 7.8). The reaction was carried out at 37 °C and the detection wavelength was set at 405 nm.

Mucor miehei lipase [2] = target: T2, Mucor miehei lipase (Mucor miehei, UniProt P19515 95-363)
T2 sequence (looked up): T1 sequence (P19515 95-363)

| Substance | IC50 (half maximal inhibitory concentration), Measured (Mucor miehei lipase [1]) [µg/mL] | peak absorbance of the product at 405 nm after 10 min of lipase catalysis with 0.015 mg/mL lipopeptide (Mucor miehei lipase [2]) [%] |
| --- | --- | --- |
| iturin | 56 |  |
| fengycin | 5 |  |
| surfactin | 5 |  |
| crude lipopeptide from Bacillus velezensis FJAT-52631 |  | 54.5 |

From PMC7170388, “Strong inhibitory activities and action modes of lipopeptides on lipase” (Journal of Enzyme Inhibition and Medicinal Chemistry, 2020)
